This passage reports survival results from PubChem BioAssay AID463173 (ICCB-Longwood Screening Facility, Harvard Medical School, 2010).

Screen size: about 52,000 compounds; about 1,700 (3.3%) were called active. Rule as the data show it: active = survival mostly below about 52% (no sharp cut-off); inactive = mostly above about 56%. This is one part of the list.

The subject of the test is Wild type. Put plainly: growth inhibition of S. aureus wild type versus tarO mutant, primary screen, teichoic acid synthesis inhibitors, RN4220, OD600 (AID 463173). The note with it: S. aureus RN4220 wild type/DeltatarO growth, OD600, 18 h, stronger effect = lower value, screened at 18.75 µg/mL (by protocol).
`COc1ccc(CCNC(=O)CCSCc2ccccc2Cl)cc1OC`: the survival was inactive: 88%.
For the compound `O=C(NCCS(=O)(=O)N1CCN(c2ccc(F)cc2)CC1)C1CC(=O)N(c2ccc(F)cc2)C1` (stereo not drawn), the survival was inactive: 70%.
For `COc1cccc(-c2cc(C(=O)Nc3ccn(Cc4ccc(C)cc4)n3)no2)c1`, the survival was inactive: 55%.
`CC(C)c1ccc2oc(-c3ccc(NC(=O)c4cc5ccccc5o4)cc3)nc2c1`: the survival is inactive: 61%.
For `CCCCc1ccc(NC(=O)CSc2nc3ccccc3nc2N2CCOCC2)cc1`, the survival was inactive: 44%.
As for `O=C(Nc1cc(Cl)cc(Cl)c1)c1ccc(F)c(S(=O)(=O)NC2CCCCC2)c1`, the survival is inactive: 64%.
Consider `[O-][n+]1c2c(nn1-c1ccccc1)/C(=N\O)CCC2`, for which the survival was inactive: 102%.
Regarding `Cc1ccn2c(Nc3ccc4c(c3)OCO4)c(-c3ccc(O)cc3)nc2c1`, the survival is inactive: 71%.
Consider `CCCOC(=O)C(C)n1nnc2sc(-c3ccccc3)cc2c1=O` (stereo not drawn), for which the survival is inactive: 89%.
As for `CCCCOc1ccc(S(=O)(=O)n2nc(C)c(S(=O)(=O)N3CCC(C)CC3)c2C)cc1`, the survival was inactive: 87%.
On to `COc1cccc(CNS(=O)(=O)c2cc(Br)cc3c2N(C(C)=O)C(C)C3)c1` (stereo not drawn), for which the survival was inactive: 136%.
With `O=C(CSCc1cnn(-c2ccccc2)c1-n1cccc1)NCc1ccccc1F` the figure was inactive: 92%; with `CCCN1CCN(c2ncnc3sc(C(=O)Nc4ccc(N(CC)CC)cc4C)c(C)c23)CC1`, inactive: 128%.
With `Cc1cccc(Cc2cnc(NC(=O)c3ccc4c(c3)CC(c3ccccc3)OC4=O)s2)c1` (stereo not drawn) the figure was inactive: 92%.
Regarding `CCc1ccc(-n2c(=O)c3c4c(sc3n(CC(=O)NCCCOC)c2=O)CCC4)cc1`, the survival was inactive: 79%.
Consider `Cc1ccc2oc(C(=O)Nc3ccc(S(=O)(=O)N(C)Cc4ccccc4)cc3)cc(=O)c2c1`, for which the survival was inactive: 81%.
On to `COc1cccc(CC(=O)NCc2ccc3c(c2)CCN3C(C)=O)c1`, for which the survival was inactive: 71%.
With `CCc1ccccc1NC(=O)C1CCN(c2nn3c(=O)cc(C)nc3s2)CC1` the figure was inactive: 88%.
For the compound `CN(C)S(=O)(=O)Nc1ccc(-c2cn3ccsc3n2)cc1`, the survival is active: 14%.
Consider `COC(=O)c1ccccc1NC(=O)c1nc(S(=O)(=O)Cc2ccccc2F)ncc1Cl`, for which the survival was inactive: 118%.
For the compound `Cc1ccc(-n2nc(C(=O)N3CCN(c4ccccc4)CC3)c(=O)n(C)c2=O)cc1`, the survival is inactive: 146%.
With `CC(NC(=O)c1ccc2nc(CCc3ccccc3)oc2c1)c1ccccc1` (stereo not drawn) the figure was inactive: 91%.
For the compound `Cc1ccccc1Cn1c(C)c(CNCc2ccccc2)c(C(=O)O)c1C`, the survival is inactive: 85%.
For the compound `CC(C)Oc1ccc(CNC(=O)c2ccc3nc(SCc4ccc(F)cc4)n(C)c3c2)cc1`, the survival is inactive: 123%.
Turning to `Cc1ccc(C)c(NC(=O)CCc2c(C)n(C)c3cc(-c4ccccc4C)nn3c2=O)c1`, the survival was inactive: 45%.
For the compound `O=C(NCCc1ccc(Cl)cc1)c1ccc2c(c1)N(Cc1ccccc1)CCS2`, the survival is inactive: 119%.
With `O=C(Nc1ccc2oc(-c3cccnc3)nc2c1)c1ccc(-c2cccc(OC(F)(F)F)c2)o1` the figure was inactive: 80%; with `COc1cccc(N2CCN(C(=O)c3ccc(CS(=O)c4cccc(Cl)c4)o3)CC2)c1` (stereo not drawn), inactive: 84%; with `COc1ccc(NC(=O)c2nc(SCc3ccccc3F)ncc2Cl)cc1`, inactive: 87%.
As for `COc1ccc(Br)cc1S(=O)(=O)N1CCCCCC1`, the survival is inactive: 117%.
As to `CCOc1ccc(NC(=O)Cn2c(CCC(=O)O)ccc2-c2ccc(Cl)cc2)cc1`, the survival is inactive: 85%.
On to `CCCN1C(C(=O)c2ccccc2)=C(OC(=O)c2ccc(F)cc2)c2ccccc2S1(=O)=O`, for which the survival was inactive: 55%.
`Cc1ccc(C)c(Cn2c3ccccc3c3cnn(CC(=O)N4CCCCC4)c(=O)c32)c1`: the survival was inactive: 82%.
As for `CC(C)c1ccc(C2=CC(c3cccc(Cl)c3)n3ncnc3N2)cc1` (stereo not drawn), the survival is active: -3%.
With `CCC(=O)Nc1sc2c(c1C#N)CCCC2`, the survival was inactive: 113%.
Take `Cc1ccc(NC(=O)CCS(=O)(=O)c2cccc3nonc23)c(C)c1`: the survival was inactive: 95%.
In the case of `CN(CCC#N)CC1Cc2ccccc2O1` (stereo not drawn), the survival is inactive: 110%.
For the compound `COc1ccc(Cl)cc1NC(=O)c1cc(S(=O)(=O)N2CCc3ccccc32)cn1C`, the survival is inactive: 83%.
As for `NC(=O)c1ccc2nc(N)sc2c1`, the survival is inactive: 103%.
Turning to `Cc1nn(CCC(=O)NC(C)C)c(=O)c2nn(-c3ccccc3)c(C)c12`, the survival is inactive: 88%.
Regarding `COc1ccccc1CC(NC(C)=O)C(=O)N1CCN(C(=O)c2cccs2)CC1` (stereo not drawn), the survival is inactive: 107%.
Consider `Cc1cccc(-n2c(=O)c3ccccc3n(Cc3ccccc3C#N)c2=O)c1`, for which the survival is inactive: 83%.
For `Cc1ccc(-c2nc3cc(N=Cc4ccccc4O)ccc3o2)cc1`, the survival was inactive: 105%.
Consider `COc1cc2c(C(=O)N3CCN(c4cccc(C)c4)C(C)C3)cn(CC(C)C)c(=O)c2cc1OC` (stereo not drawn), for which the survival is inactive: 85%.
As for `CCc1nnc(NC(=O)c2nc(S(C)(=O)=O)ncc2Cl)s1`, the survival is inactive: 86%.
Regarding `O=C(CSc1nc2c([nH]c3ccccc32)c(=O)n1-c1cccc(Cl)c1)N1CCc2ccccc21`, the survival is inactive: 45%.
With `Cc1ccc2nc(NCc3ccccc3Cl)c3nnnn3c2c1` the figure was inactive: 94%; with `COc1cccc(Cc2nc3ccccc3nc2SCC(=O)N2CCCCC2C)c1` (stereo not drawn), inactive: 71%.
For the compound `COc1cccc(C(=O)CN2CCN(S(=O)(=O)c3ccc(Cl)cc3)CC2)c1`, the survival was inactive: 76%.
With `O=C(NCc1ccco1)c1ccc2c(c1)N(Cc1ccc(F)cc1)C(=O)c1ccccc1S2=O` (stereo not drawn) the figure was inactive: 98%; with `O=C(CN1C(=O)CSc2ccc(S(=O)(=O)N3CCCCC3)cc21)NCc1ccc(F)cc1Cl`, inactive: 127%.
Turning to `COc1cc(NC(=O)CCc2c(C)n(C)c3cc(-c4ccccc4C)nn3c2=O)cc(OC)c1OC`, the survival was inactive: 130%.
Take `CCOc1ccccc1NC(=O)c1sc2nc3c(cc2c1N)CN(Cc1ccccc1)CC3`: the survival was inactive: 77%.
`COc1cc2ccccc2cc1C(=O)Nc1ccc2oc(-c3cc(Br)ccc3Cl)nc2c1`: the survival was inactive: 71%.
As to `Cc1ccc(-c2noc(CSc3nnc(-c4ccc(Cl)cc4)n3C)n2)cc1`, the survival was inactive: 83%.
As for `Cc1cccc(C(=O)NCC(c2ccc3c(c2)OCO3)N2CCOCC2)c1` (stereo not drawn), the survival is inactive: 89%.
With `Cc1ccc(S(=O)(=O)NCc2cccnc2)cc1`, the survival was inactive: 118%.
With `CC(C)C(=O)N(C)c1nnc(-c2ccc(F)cc2)s1` the figure was inactive: 110%.
